Hit rate of the full screen: of about 310,000 compounds, about 14,000 (4.5%) showed an effect of 50% or more. Effects have a minus sign here. Some of the results follow.
Target: human ether-à-go-go-related gene (hERG) potassium channel (human, UniProt Q12809)
Assay: primary screen, population patch clamp on CHO cells stably expressing hERG
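Also: peak tail current of the secondary pulse compared with the same well before compound.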

Sequence of human ether-à-go-go-related gene (hERG) potassium channel (Q12809 whole entry, looked up): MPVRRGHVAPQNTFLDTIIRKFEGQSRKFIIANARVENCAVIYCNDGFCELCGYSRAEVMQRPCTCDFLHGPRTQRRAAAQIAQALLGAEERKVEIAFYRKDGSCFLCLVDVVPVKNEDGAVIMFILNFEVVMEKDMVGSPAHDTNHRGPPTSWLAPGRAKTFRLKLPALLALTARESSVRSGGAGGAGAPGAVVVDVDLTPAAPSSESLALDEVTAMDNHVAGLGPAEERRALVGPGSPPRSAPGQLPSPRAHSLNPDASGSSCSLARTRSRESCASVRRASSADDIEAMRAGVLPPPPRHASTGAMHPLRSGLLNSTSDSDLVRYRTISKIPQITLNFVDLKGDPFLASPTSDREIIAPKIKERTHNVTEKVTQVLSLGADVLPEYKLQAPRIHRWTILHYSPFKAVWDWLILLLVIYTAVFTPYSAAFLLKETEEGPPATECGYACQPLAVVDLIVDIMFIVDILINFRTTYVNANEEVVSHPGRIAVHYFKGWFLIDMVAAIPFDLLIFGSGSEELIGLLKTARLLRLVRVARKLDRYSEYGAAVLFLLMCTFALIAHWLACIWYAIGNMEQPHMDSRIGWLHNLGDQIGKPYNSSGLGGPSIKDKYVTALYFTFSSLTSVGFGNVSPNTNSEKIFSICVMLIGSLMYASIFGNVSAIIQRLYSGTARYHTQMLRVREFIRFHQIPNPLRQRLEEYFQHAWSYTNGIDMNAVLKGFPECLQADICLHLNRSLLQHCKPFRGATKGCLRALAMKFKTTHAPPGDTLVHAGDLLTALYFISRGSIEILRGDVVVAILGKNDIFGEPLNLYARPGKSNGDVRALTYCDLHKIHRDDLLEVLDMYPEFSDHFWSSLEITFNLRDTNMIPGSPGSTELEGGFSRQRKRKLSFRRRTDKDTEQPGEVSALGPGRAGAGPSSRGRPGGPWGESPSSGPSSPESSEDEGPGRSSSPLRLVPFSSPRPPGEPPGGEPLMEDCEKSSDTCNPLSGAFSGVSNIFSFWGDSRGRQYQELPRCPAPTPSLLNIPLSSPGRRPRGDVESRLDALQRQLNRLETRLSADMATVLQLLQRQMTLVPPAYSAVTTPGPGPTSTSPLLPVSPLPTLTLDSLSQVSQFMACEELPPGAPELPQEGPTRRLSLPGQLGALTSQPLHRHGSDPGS

SMILES	hERG current change (%, negative = inhibition) at 10uM [%]
CC1(C)CC(=O)N(c2cc(Cl)ccc2Cl)C(=O)C1	10.2
O=C(NCCc1cccs1)C12CN(Cc3ccccc3)CC1C(c1cccc([N+](=O)[O-])c1)=NO2 (stereo not drawn)	-21.3
COc1ccc(CCNC(=O)C2CCN(C(=O)c3ccc(C(C)(C)C)cc3)CC2)cc1	0.914
CCc1c(C)[nH]c2c1C(=O)C(CN1CCOCC1)CC2.Cl (stereo not drawn)	-7.67
CSc1ccc(S(=O)(=O)NCc2ccccc2C)cc1	-4.54
O=S(=O)(c1ccc2c(c1)OCCO2)N1CCc2ccccc21	12.3
CCN=C(NCC)SC1CC(=O)N(c2ccc(F)cc2)C1=O (stereo not drawn)	2.2
C/C(Cc1ccccc1)=N\NC(=O)CNC(=O)c1ccccc1Cl	12.5
Cn1c(N)c(C(=O)CSc2nn(-c3ccc(F)cc3)c(=S)s2)c(=O)n(C)c1=O	-3.72
CCC(C(=O)NCC1CCCO1)n1nc(C)c2sc3ccccc3c2c1=O (stereo not drawn)	-6.19
CCOC(=O)N1CCC(N2Cc3cccc(C(=O)N4CCN(c5cccc(C)c5C)CC4)c3C2=O)CC1	-36.7
COc1ccc(OCCOCC(O)CN2CCOCC2)cc1.Cl (stereo not drawn)	4.55
O=C(CCCn1c(=S)[nH]c2ccsc2c1=O)NCc1ccco1	18.8
CCN(CC(=O)Nc1ccccc1C(F)(F)F)C(=O)c1ccccc1Cc1ccccc1	-19.8
CS(=O)(=O)c1ccc2nc(NC(=O)c3ccccc3Cl)sc2c1	2.78
CCN1CCN(P2(=O)C=C(c3ccccc3)OC(c3ccccc3)=C2)CC1	-77.9
C=CCc1ccc(OCCCN2CCCC(C)C2)c(OC)c1.O=C(O)C(=O)O (stereo not drawn)	-65.8
Cc1ccc(C)n1-c1nccc(-c2cccs2)n1	19.1
O=C(O)C(=O)O.c1ccc2c(c1)ncn2CCCCOc1ccc2c(c1)CCC2	-9.31
Cc1ccccc1NS(=O)(=O)c1ccc(OCC(=O)N2CCCCC2)cc1	5.83
Fc1ccc(C2CC(c3ccccc3)Nc3ncnn32)cc1 (stereo not drawn)	-45.9
CC(C)(C)N(Cc1ccccc1)C(=O)COC(=O)c1ccccc1SCC(=O)N1CCCC1	-14.7
COc1ccc(Br)cc1CN(C)C(=O)Cc1ccc(OC)c(S(=O)(=O)N2CCOCC2)c1	-41

SMILES	hERG current change (%, negative = inhibition) at 10uM [%]
CC1(C)CC(=O)N(c2cc(Cl)cc(Cl)c2)C(=O)C1	10.5
COc1cc(C2CC(=O)Nc3cc(C)c(C)cc32)cc(OC)c1OC (stereo not drawn)	3.4
O=C(CN1C(=O)NC2(CCCCCCC2)C1=O)N1CCc2ccccc2C1	-19.1
Cc1cccc(-n2ccc(=O)c(C(=O)Nc3ccc(S(=O)(=O)Nc4nccc(C)n4)cc3)n2)c1	23.7
Cc1ccccc1C(=O)Nc1ccc(Br)c(C)n1	-3.66
CCCCn1c(N)c(N(CC(C)C)C(=O)c2ccc(OCC3CCCO3)cc2)c(=O)[nH]c1=O (stereo not drawn)	2.23
CCOC(=O)/C(=C\c1ccc([N+](=O)[O-])cc1)C(=O)c1cc(C(C)=O)c(Nc2ccccc2)s1	-3.64
CC(C)c1ccccc1NC(=S)N(C)C	15.6
COC(=O)Nc1ccc(S(=O)(=O)Nc2ncccn2)cc1	25.9
COc1ccc2c(CCNC(=O)Nc3ccccc3)c[nH]c2c1	3.74
O=C(NCc1cc(C(F)(F)F)ccc1F)C1CCC(=O)N(C2CCCCCC2)C1 (stereo not drawn)	-15.4
COc1ccc(/C=N/NC(=O)c2cc(-c3ccccc3)nc3ccccc23)cc1O	8.08
CC(=O)N(CN1C(=O)CCC1=O)c1cccc(Cl)c1	-17
COc1cccc(-n2cc3c(c2-c2ccccc2)c(=O)n(C)c(=O)n3C)c1	-10.2
Cl.O=C(O)c1ccc(Nc2nc(-c3ccccc3)nc3ccccc23)cc1	16.9
CC(=O)Nc1ccc(S(=O)(=O)Nc2ccc(Cc3ccncc3)cc2)cc1	-16.8
Cn1c(=O)c2c(ncn2CCOc2ccc(F)cc2)n(C)c1=O	12.3
N#C/C(=C\c1cccs1)C(=O)c1ccccc1Cl	6
Cc1ccc(Nc2nc(N)nc(CN3CCc4ccccc4C3)n2)cc1	-72.2
COc1ccc(CCn2c(-c3ccc(Cl)cc3)n[nH]c2=S)cc1OC	16.8
COc1ccc(S(=O)(=O)N(C)C)cc1NC(=O)[C@H](Cc1ccccc1)N1C(=O)c2ccccc2C1=O	-1.8
COCCn1c(Cc2ccccc2)nnc1SCC(=O)NC1CC1	9.47

— paper PMC4336329 (PLoS ONE, 2015)
